Assay results: PubChem BioAssay AID624296 (National Center for Advancing Translational Sciences (NCATS), 2012)
Screen size: about 350,000 compounds; about 9,900 (2.8%) were called active. This list was built around the results that the source calls inconclusive (neither active nor inactive); the mix of calls is not that of the screen. The call rests on the fitted dose curve; in most records, active means well fitted activation curve with a large enough effect; inconclusive means small, poorly fitted or top-dose-only effect; inactive means no such curve, though single readings can be large or run the other way. No potency is given beside an inconclusive call; the fits are too rough.

Test: A quantitative high throughput screen for small molecules that induce DNA re-replication in MCF 10a normal breast cells. Further: nearly all actives have a fitted effect of over 50% in size.
Conditions: MCF 10A DNA re-replication, Hoechst nuclear intensity, 48 h; series mostly up to 46.1 µM
Potency means the concentration at half of the fitted maximal effect; tags describe the fitted curve by direction and shape.

| SMILES | Potency |
| --- | --- |
| Fc1cccc(Cl)c1Cn1nnc(-c2ccc3c(c2)OCO3)n1 | inconclusive [activator, partial curve, poor fit] |
| Cc1onc(-c2ccccc2)c1C(=O)N1CCCN2C(=O)c3ccccc3C21 (centres undefined) | inactive |
| O=C(Nc1ccn(CCCNCc2ccc3c(c2)OCO3)c(=O)n1)OCc1ccccc1 | inactive |
| COc1cc(C(=O)Nc2nccs2)c(Br)c(OC)c1OC | inconclusive [activator, single point] |
| O=C(O)c1ccccc1NC(=O)C1CCCO1 (centres undefined) | inconclusive [activator, partial curve, poor fit] |
| N=c1ccn(Cc2cccc(F)c2)cc1 | inactive |
| CCn1c(=NC(=O)c2ccc(N3C(=O)CCC3=O)cc2)sc2c(OC)ccc(OC)c21 | inconclusive [activator, single point] |
| COc1ccccc1Nc1nc(C)nc2c1oc1ccccc12 | active: 18.4 µM |
| CC1CN(c2nc3ccccc3nc2SCC(=O)Nc2cccc(C(F)(F)F)c2)CC(C)O1 (centres undefined) | inconclusive [activator, single point] |
| COc1ccc(C(=O)Nc2ccccc2C(=O)N2CCOCC2)cc1OC | inactive |
| COc1ccccc1N(Cc1ccccc1)S(=O)(=O)c1cccc(C(=O)Nc2ccc(C(C)=O)cc2)c1 | inactive |
| COc1ccc(Nc2ccccc2N)cc1 | inconclusive [activator, single point] |
| O=C(NCC1CCN(Cc2ccc(F)cc2)CC1)Nc1cc(F)ccc1F | inconclusive [activator, partial curve, poor fit] |
| O=C1COc2ccc(C(=O)COC(=O)/C=C/c3ccco3)cc2N1 | inactive |
| N#Cc1c(-c2ccccc2F)cc(C2CC2)nc1SCC(=O)c1cccs1 | inconclusive [activator, single point] |
| CC(C)OCCCNC(=O)C1CCN(S(=O)(=O)N2CCCCC2)CC1 | inconclusive [activator, single point] |
| C=CCn1c(-c2cc(-c3ccccc3)sc2N)n[nH]c1=S | inactive |
| COc1ccc(CCN2C(=O)c3cccc4c(C(=O)N5CCCCC5)ccc(c34)C2=O)cc1OC | inconclusive [activator, partial curve, poor fit] |
| O=C(COc1ccc(S(=O)(=O)N2CCCC2)cc1Cl)N1CCN(c2ccccc2)CC1 | inactive |
| NC(=O)c1c(NC(=O)c2ccccc2F)sc2c1CCCC2 | inconclusive [activator, single point] |
| COc1ccc(/C=C\C(=O)c2c(O)ccc3c(C)cc(=O)oc23)cc1OC | inconclusive [activator, partial curve] |
| CCCOc1c(Br)cc(/C=N/O)cc1OC | inconclusive [activator, single point] |

| SMILES | Potency |
| --- | --- |
| O=C(NC1CCCCC1)c1sc(=S)n2c1[nH]c(=O)c1ccccc12 | inconclusive [activator, full curve] |
| CN1CCN(c2ccc(NC(=O)c3ccc4c(c3)[nH]c(=O)n4Cc3ccc(F)cc3)cc2)CC1 | inconclusive [activator, single point] |
| Cc1ccc(/C=C/C(=O)Nc2ccc(S(=O)(=O)Nc3cc(C)nc(C)n3)cc2)cc1 | inconclusive [activator, single point] |
| COc1cc(/C=C(\C#N)C(=O)Nc2ccccc2)ccc1OCCN1CCOCC1 | inconclusive [activator, full curve, poor fit] |
| COc1ccc(-c2nn(-c3ccccc3)cc2/C=N/Nc2ccc(Cl)c(C(=O)O)c2)cc1OC | inconclusive [activator, partial curve, poor fit] |
| O=Cc1ccccc1OS(=O)(=O)c1ccccc1 | inconclusive [activator, partial curve, poor fit] |
| COc1cc(C(F)(F)F)nc2ccc(C#CCOC(=O)Nc3ccccc3)cc12 | inconclusive [activator, full curve, poor fit] |
| CC12CCC(C(=O)C1)C1(C)CCCC(=O)C21 (centres undefined) | inactive |
| O=C(NCc1ccc(Cl)cc1Cl)C1CCN(S(=O)(=O)c2ccc3c(c2)OCCCO3)CC1 | inactive |
| COc1ccccc1C(=O)N1CCC(N2CCN(c3ccccc3)CC2)CC1 | inconclusive [activator, full curve, poor fit] |
| O=C(O)C1CCN(c2ccccc2[N+](=O)[O-])CC1 | inactive |
| Cc1ccc(CN2CC(C(=O)NNC(=O)c3ccc(F)cc3)CC2=O)cc1 (centres undefined) | inactive |
| Cc1ccccc1-n1nnnc1Sc1nnnn1-c1ccccc1 | active: 14.6 µM |
| Cc1nn(CC(=O)NC(=O)c2ccccc2)c(C)c1[N+](=O)[O-] | inconclusive [activator, partial curve, poor fit] |
| Cc1ccc(OCCCCCCN2CCNCC2)cc1 | inconclusive [activator, full curve, poor fit] |
| CCC1(c2ccccc2)NC(=O)N(CC(=O)Nc2cccc(C#N)c2)C1=O (centres undefined) | inconclusive [activator, single point] |
| CC(=O)OCC(=O)C1CCC2C3CC=C4CC(O)CCC4(C)C3CCC12C (centres undefined) | inactive |
| O=c1cc(N2CCC(Cc3ccccc3)CC2)[nH]c(=O)n1C1CCCCC1 | inconclusive [activator, full curve, poor fit] |
| COc1ccc([C@@H]2[C@@H]3C(=O)N(C(C)(C)C)C(=O)[C@@H]3[C@]3(CC(C)C)C(=O)N(c4cccc(Br)c4)C(=O)N23)cc1 | inconclusive [activator, single point] |
| COc1ccccc1S(=O)(=O)Cc1ccc(C(=O)N2CCOCC2)o1 | inactive |
| COc1ccc(N(CC(=O)Nc2ccc(C)c(C)c2)C2=NC3CS(=O)(=O)CC3S2)cc1 (centres undefined) | inactive |
| Cc1ccc2sc(N(CCCN(C)C)C(=O)c3ccc(S(=O)(=O)N(C)Cc4ccccc4)cc3)nc2c1C | inconclusive [activator, single point] |
